PubChem BioAssay AID504332 (National Center for Advancing Translational Sciences (NCATS), 2011)
About 31,000 (8.9%) of roughly 350,000 compounds were called active. Inconclusive results, whose numbers are uncertain, are shown with a selection of clear calls. Calls come from the whole dose curve; as a rule, active = well fitted inhibition curve with a large enough effect; inconclusive = small, poorly fitted or top-dose-only effect; inactive = no such curve, though single readings can be large or run the other way. Where the call is inconclusive, the potency comes from a doubtful curve fit.
% is set by controls: 0 for no effect and ±100 for the full control effect; potency is the fitted concentration of half-maximal effect; tags give direction and shape of the fitted curve.
Note: nearly all actives have a fitted effect of over 75% in size.

What follows are compounds tested against Histone-lysine N-methyltransferase EHMT2 (Homo sapiens) (UniProt Q96KQ7) (assay: qHTS Assay for Inhibitors of Histone Lysine Methyltransferase G9a). Details: G9a H3K9 monomethylation, AlphaScreen, 2 h; activity, negative = inhibition: at 59 µM (top of the series) unless noted.
UniProt Q96KQ7, sequence (Q96KQ7 whole entry, looked up): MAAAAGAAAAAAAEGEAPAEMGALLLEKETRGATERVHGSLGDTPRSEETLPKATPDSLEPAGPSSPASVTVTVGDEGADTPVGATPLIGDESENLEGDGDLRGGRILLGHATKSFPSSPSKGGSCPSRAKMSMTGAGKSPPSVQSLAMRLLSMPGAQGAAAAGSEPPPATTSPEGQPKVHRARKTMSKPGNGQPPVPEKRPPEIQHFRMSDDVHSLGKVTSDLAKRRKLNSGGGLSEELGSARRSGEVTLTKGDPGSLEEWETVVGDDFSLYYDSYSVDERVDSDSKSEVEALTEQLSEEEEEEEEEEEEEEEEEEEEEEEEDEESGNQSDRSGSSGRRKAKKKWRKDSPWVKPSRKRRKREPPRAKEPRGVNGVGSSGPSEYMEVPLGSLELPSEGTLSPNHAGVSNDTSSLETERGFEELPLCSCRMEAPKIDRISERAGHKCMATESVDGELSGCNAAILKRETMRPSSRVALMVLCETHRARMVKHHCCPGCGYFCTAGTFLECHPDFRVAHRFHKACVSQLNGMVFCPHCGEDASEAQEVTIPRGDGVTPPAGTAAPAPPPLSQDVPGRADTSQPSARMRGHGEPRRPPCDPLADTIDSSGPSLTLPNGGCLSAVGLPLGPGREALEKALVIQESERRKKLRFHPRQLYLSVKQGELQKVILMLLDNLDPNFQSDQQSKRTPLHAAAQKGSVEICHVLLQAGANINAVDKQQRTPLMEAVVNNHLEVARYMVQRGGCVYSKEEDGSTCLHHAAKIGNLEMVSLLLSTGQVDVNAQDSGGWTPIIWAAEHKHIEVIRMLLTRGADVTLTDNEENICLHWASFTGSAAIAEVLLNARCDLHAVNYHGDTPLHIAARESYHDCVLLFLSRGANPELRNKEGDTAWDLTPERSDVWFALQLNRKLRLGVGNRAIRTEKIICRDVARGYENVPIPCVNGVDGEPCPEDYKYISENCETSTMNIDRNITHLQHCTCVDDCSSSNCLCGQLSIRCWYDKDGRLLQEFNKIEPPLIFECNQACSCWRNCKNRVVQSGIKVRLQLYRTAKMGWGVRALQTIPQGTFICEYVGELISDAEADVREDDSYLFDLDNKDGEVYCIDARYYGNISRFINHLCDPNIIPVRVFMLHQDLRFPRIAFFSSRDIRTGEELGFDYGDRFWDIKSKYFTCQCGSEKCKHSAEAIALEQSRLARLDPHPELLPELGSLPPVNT
Outline: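 G9a (20 nM) was preincubated 15 min with compound, then reacted 2 h at room temperature with 500 nM biotin-H3K9 peptide and 20 µM SAM. Monomethyl-H3K9 detected by AlphaScreen using anti-H3K9me1 antibody.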
`Cc1cc(C)c(NC(=O)CS)c(Cl)c1` was tested, and the Potency was inconclusive: 50.1 µM [inhibitor, partial curve].
In the case of `COc1ccccc1N1CCN(C(CNC(=O)C2CCCCC2)c2cccnc2)CC1` (stereo not drawn), the Potency is reported as inconclusive: 44.7 µM [inhibitor, partial curve].
For `COCCNC(=O)c1ccc(CS(=O)(=O)c2c(Cl)cccc2Cl)o1`, the Potency was inconclusive: 28.2 µM [inhibitor, single point].
For `O=C(NCC1c2ccccc2CCN1C(=O)CN1CCOCC1)C1CCCCC1` (stereo not drawn), the Potency was inconclusive: 50.1 µM [inhibitor, partial curve, poor fit].
`FC(F)(F)c1ccccc1/C=N/Nc1ccccn1` was tested, and the Potency was inconclusive: 79.4 µM [inhibitor, partial curve, poor fit].
In the case of `Cc1ccsc1C(=O)OCC(=O)NCCNC(=O)COC(=O)c1sccc1C`, the Potency is reported as inconclusive: 89.1 µM [inhibitor, partial curve, poor fit].
In the case of `Cc1ccc(NC(=O)N2CCCC2C(=O)NCCC2=CCCCC2)cc1` (stereo not drawn), the Potency is reported as inconclusive: 89.1 µM [inhibitor, single point].
`CN1/C(=C\C=C2/C(=O)Oc3ccccc3C2=O)C(C)(C)c2ccccc21` was tested, and the Potency was inconclusive: 25.1 µM [inhibitor, single point].
With `O=C(CN1C(=O)c2ccc([N+](=O)[O-])cc2C1=O)NC1CCCCCC1` the Potency was inconclusive: 50.1 µM [inhibitor, partial curve].
In the case of `CC(=O)Nc1cccc(NC(=O)CSc2nnc(Cc3cccn3C)n2-c2ccc(C)cc2)c1`, the Potency is reported as active: 50.1 µM.
For `CN(C)c1cccc2c(S(=O)(=O)Nc3ccccn3)cccc12`, the activity, negative = inhibition was inactive: 6.92% [at 12.7 µM].
`COc1cc(CC(=O)N/N=C/c2ccccc2)c([N+](=O)[O-])cc1OC` was tested, and the Potency was inconclusive: 1.58 µM [inhibitor, partial curve, poor fit].
In the case of `Cc1ccc(OCCCn2c(C3CC(=O)N(c4cccc(Cl)c4)C3)nc3ccccc32)c(C)c1` (stereo not drawn), the Potency is reported as inconclusive: 0.891 µM [inhibitor, full curve, poor fit].
In the case of `O=C(Nc1nnc(-c2ccco2)s1)C1CC1`, the Potency is reported as active: 50.1 µM.
`Cc1nc(N)sc1-c1csc(Nc2ccc(Cl)cn2)n1` was tested, and the Potency was active: 10 µM.
In the case of `COc1ccc(-c2csc(NCc3ccco3)n2)cc1C`, the Potency is reported as inconclusive: 2.82 µM [inhibitor, single point].
In the case of `N#Cc1c(N2C(=O)Nc3ccccc3N2O)sc2c1CCCCCC2`, the Potency is reported as inconclusive: 31.6 µM [inhibitor, single point].
`Cc1cccc(C)c1NC(=O)CNc1ccccc1` was tested, and the Potency was inconclusive: 89.1 µM [inhibitor, partial curve, poor fit].
`COc1cccc(-n2ccnc2SCC(=O)Nc2cccc(C)c2C)c1` was tested, and the Potency was inconclusive: 11.2 µM [inhibitor, partial curve, poor fit].
For `COc1ccc(Cc2nc3ccccc3n2C)cc1`, the Potency was “inactive”.
For `Cn1c(=O)c2c(nc(N3CCCCC3)n2C)n(C)c1=O`, the Potency was inconclusive: 35.5 µM [inhibitor, partial curve, poor fit].
For `Cc1cccc(NC(=O)CSc2nc3[nH]c(=O)cc(O)c3s2)c1`, the Potency was inconclusive: 3.98 µM [inhibitor, single point].
With `COc1ccccc1C1c2ccc3ccccc3c2Oc2ncn(CCN(C)C)c(=N)c21` (stereo not drawn) the Potency was inconclusive: 89.1 µM [inhibitor, single point].
`c1ccc(CSc2ncccn2)cc1` was tested, and the Potency was active: 25.1 µM.
For `O=C(NCc1ccccn1)c1ccc(Cn2cc(Br)cn2)o1`, the Potency was inconclusive: 39.8 µM [inhibitor, single point].
For `CCOC(=O)C1=C(N)OC2=C(C(=O)CCC2)C1c1ccco1` (stereo not drawn), the Potency was inconclusive: 28.2 µM [inhibitor, single point].
For `N=C1/C(=C/c2cccn2-c2ccc([N+](=O)[O-])cc2)C(=O)N=C2SC=CN12`, the Potency was “inactive”.
In the case of `CCOC(=O)/C=C1\CC(C(=O)OCC)Oc2c(OC)cccc21` (stereo not drawn), the Potency is reported as active: 31.6 µM.
For `CSc1ccc(C2CC(=O)Nc3c2c(=O)n(C)c(=O)n3C)cc1` (stereo not drawn), the Potency was “inactive”.
For `Cc1sc2nc(CN(CCc3ccccc3)C(=O)c3ccco3)[nH]c(=O)c2c1C`, the Potency was inconclusive: 1.58 µM [inhibitor, full curve, poor fit].
For `O=C(COc1ncnc2ccccc12)c1ccc(Cl)cc1`, the activity, negative = inhibition was inactive: 12.6% [at 0.0925 µM].
In the case of `COc1ccc(-c2[nH]ncc2CN2CCC(N3CCSCC3)CC2)c(F)c1`, the Potency is reported as inconclusive: 100 µM [inhibitor, single point].
`COc1ccc(C2CC(=O)C=C(NNS(=O)(=O)c3ccc(C)cc3)C2)cc1` (stereo not drawn) was tested, and the Potency was “inactive”.
For `Cc1ccc(OCCCC(=O)N2CCOCC2)c(C)c1`, the Potency was inconclusive: 1.41 µM [inhibitor, partial curve, poor fit].
`CN(Cc1ccccc1)c1ccc(C(=O)O)cc1[N+](=O)[O-]` was tested, and the Potency was “inactive”.
For `CC(C(=O)NC(C)(C)C)N1C(=O)c2cccc3cccc(c23)C1=O` (stereo not drawn), the Potency was inconclusive: 50.1 µM [inhibitor, partial curve, poor fit].
For `CCCc1nnc(NC(=O)CCC(=O)N2CCN(CCn3c(C)ccc3C)CC2)s1`, the Potency was active: 70.8 µM.
In the case of `Cc1ccc(NC(=O)c2cnccn2)cc1S(=O)(=O)N(C)C`, the Potency is reported as “inactive”.
For `CCCC(=O)NCC(c1ccc2c(c1)OCO2)N1CCN(c2ccc(F)cc2)CC1` (stereo not drawn), the Potency was “inactive”.
For `CCC(=O)NC(c1ccccc1)c1c(O)ccc2ccccc12` (stereo not drawn), the Potency was “inactive”.
`COc1ccc(C2c3[nH]c4ccccc4c3C[C@H]3C(=O)N(CC(C)C)CC(=O)N23)c(OC)c1` (stereo partly drawn) was tested, and the Potency was inconclusive: 89.1 µM [inhibitor, single point].
In the case of `CCCn1nc(C(=O)OCC(=O)c2ccc3c(c2)NC(=O)CO3)c2ccccc2c1=O`, the Potency is reported as inconclusive: 14.1 µM [inhibitor, partial curve, poor fit].
In the case of `COn1c(SC2CCCCC2)nc2ccccc2c1=O`, the Potency is reported as active: 22.4 µM.
With `CC(=Nc1cccc(O)c1)c1sc2ccccc2c1O` the activity, negative = inhibition was inconclusive: -77.9% [inhibitor].
With `COC(=O)c1c(NC(=O)COC(=O)CNC(=O)c2ccco2)sc(C)c1C` the Potency was “inactive”.
In the case of `O=C(NNC(=S)NC(=O)c1cn(-c2ccccc2)nc1-c1ccccc1)c1ccncc1`, the Potency is reported as active: 25.1 µM.
For `COc1ccc2[nH]c(=O)c(CN(C(=O)c3cccnc3)c3ccc(C)cc3)cc2c1`, the Potency was “inactive”.
In the case of `N#CCC(=O)N1CC2(CC(c3cccc(NC(=O)COc4ccc(Cl)cc4)c3)=NO2)C[C@@H]1C(N)=O` (stereo partly drawn), the Potency is reported as “inactive”.
With `CCOc1ccccc1CNC(=O)Nc1cn(CC(C)C)c(=O)c2ccccc12` the Potency was inconclusive: 14.1 µM [inhibitor, partial curve, poor fit].
For `Cc1cc(C(=O)CSc2nc(N)cc(N)n2)c(C)n1CCc1ccc(F)cc1`, the activity, negative = inhibition was inconclusive: -98.7% [inhibitor].
In the case of `CC(C)(C)c1ccc(N2C(=O)Cc3c2nc(N)c(C#N)c3N)cc1`, the Potency is reported as inconclusive: 89.1 µM [inhibitor, single point].
`CC1(c2ccc3c(c2)OCO3)NC(=O)N(CC(=O)Nc2ccccc2[N+](=O)[O-])C1=O` (stereo not drawn) was tested, and the Potency was inconclusive: 79.4 µM [inhibitor, partial curve, poor fit].
`CC(=O)Nc1ccc2c(c1)nc1n2CCSC1` was tested, and the Potency was “inactive”.
In the case of `CO[C@H]1/C=C/O[C@@]2(C)Oc3c(C)c(O)c4c(O)c(c(/C=N\N5CCN(C6CCCC6)CC5)c(O)c4c3C2=O)NC(=O)/C(C)=C\C=C\[C@H](C)[C@H](O)[C@@H](C)[C@@H](O)[C@@H](C)[C@H](OC(C)=O)[C@@H]1C`, the Potency is reported as inconclusive: 3.16 µM [inhibitor, partial curve, poor fit].
For `Cc1ccc(OCc2nc3ccccc3n2CC(C)C)cc1`, the Potency was inconclusive: 28.2 µM [inhibitor, single point].
`NS(=O)(=O)c1ccc(NC(=S)NC(=O)/C=C/c2cccs2)cc1` was tested, and the Potency was “inactive”.
In the case of `CC1Cc2nc(SCC(=O)N3CCN(c4ccccc4)CC3)n(C)c(=O)c2S1` (stereo not drawn), the Potency is reported as inconclusive: 6.31 µM [inhibitor, single point].
`COc1cc(C(=O)N(CCc2ccccc2)C2=CC3CCC(C2)N3C)cc(OC)c1OC` (stereo not drawn) was tested, and the Potency was inconclusive: 25.1 µM [inhibitor, single point].
With `OC(CNCCc1ccc(C(F)(F)F)cc1)COC(c1ccccc1)c1ccccc1` (stereo not drawn) the Potency was inconclusive: 50.1 µM [inhibitor, partial curve].
With `Cc1ccccc1-n1nnnc1SCC(=O)c1c(N)n(C)c(=O)n(C)c1=O` the Potency was inconclusive: 79.4 µM [inhibitor, partial curve, poor fit].
In the case of `COc1ccc(C(O)(CCC(C)C)C(CN2CCOCC2)c2ccc(Cl)cc2)cc1` (stereo not drawn), the Potency is reported as inconclusive: 89.1 µM [inhibitor, single point].
For `CNc1nc(N)c(C(=O)Nc2cc(C)on2)s1`, the Potency was “inactive”.
`CN(C)c1ccc(/C=C/c2ccc3c4ccccc4ccc3[n+]2-c2ccccc2)cc1` was tested, and the Potency was active: 15.8 µM.
`COCCn1c(-c2ccccc2)nc2oc3ccccc3c(=O)c2c1=O` was tested, and the Potency was inconclusive: 89.1 µM [inhibitor, partial curve, poor fit].
In the case of `c1coc(CNc2nc(N3CCCCC3)nc3ccccc23)c1`, the Potency is reported as inconclusive: 50.1 µM [inhibitor, partial curve, poor fit].
In the case of `CC(=O)c1sc(N/N=C\c2cccc(Br)c2)nc1C`, the Potency is reported as inconclusive: 11.2 µM [inhibitor, partial curve, poor fit].
For `CCOC(=O)c1c(C)c(-c2ccccc2)n(CC(=O)Nc2cc(OC)cc(OC)c2)c1C`, the Potency was “inactive”.
`COc1cc2c(cc1OC)CN(C1CCC(C)CC1)CC2` (stereo not drawn) was tested, and the Potency was inconclusive: 20 µM [inhibitor, partial curve, poor fit].
